From PubChem BioAssay AID256 (DTP/NCI, 2004) come the findings set out here.

This test has as its system CD2F1 mice, L1210 leukemia ip, survival T/C. Briefly: NCI In Vivo Anticancer Drug Screen. Data for tumor model L1210 Leukemia (intraperitoneal) in CD2F1 (CDF1) mice. The settings on record: endpoint: mean survival time; dose: 150.0 mg/kg/injection; schedule: Q04DX003 (ip); vehicle: saline; higher = longer survival. As to the method:
The antitumor activity of compounds was measured in mice bearing transplantable tumors. Survival or tumor size were measured and the results are expressed as the measurement made in the treated group (T) divided by the measurement made in the vehicle treated control group (C). The tumor model used in this assay is L1210 Leukemia (intraperitoneal) in CD2F1 (CDF1) mice

The structures appear in SMILES notation. Inconclusive results and toxic doses are left out. Some entries of the source have several records that differ or are many. This is not the full list of results. An entry can have further records. Values that stand side by side do not match, cause unknown; they may come from other doses, times, organisms or constructs than stated.

On to `CCn1cnc2c(=S)nc[nH]c21`, for which the T/C is 123 % of control and 151 % of control.
